About 14,000 (4.5%) of roughly 310,000 compounds showed an effect of 50% or more. Effects have a minus sign here. The list shows a part of the results. Where a SMILES comes first, the peptide text is derived from it. The star is where a group is joined. Boc = CC(C)(C)OC(=O)*; Bn = c1ccc(C*)cc1
biological target: human ether-à-go-go-related gene (hERG) potassium channel (human, UniProt Q12809); experiment: primary screen, population patch clamp on CHO cells stably expressing hERG
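Note: peak tail current of the secondary pulse compared with the same well before compound.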

Chain of human ether-à-go-go-related gene (hERG) potassium channel (Q12809 whole entry, looked up): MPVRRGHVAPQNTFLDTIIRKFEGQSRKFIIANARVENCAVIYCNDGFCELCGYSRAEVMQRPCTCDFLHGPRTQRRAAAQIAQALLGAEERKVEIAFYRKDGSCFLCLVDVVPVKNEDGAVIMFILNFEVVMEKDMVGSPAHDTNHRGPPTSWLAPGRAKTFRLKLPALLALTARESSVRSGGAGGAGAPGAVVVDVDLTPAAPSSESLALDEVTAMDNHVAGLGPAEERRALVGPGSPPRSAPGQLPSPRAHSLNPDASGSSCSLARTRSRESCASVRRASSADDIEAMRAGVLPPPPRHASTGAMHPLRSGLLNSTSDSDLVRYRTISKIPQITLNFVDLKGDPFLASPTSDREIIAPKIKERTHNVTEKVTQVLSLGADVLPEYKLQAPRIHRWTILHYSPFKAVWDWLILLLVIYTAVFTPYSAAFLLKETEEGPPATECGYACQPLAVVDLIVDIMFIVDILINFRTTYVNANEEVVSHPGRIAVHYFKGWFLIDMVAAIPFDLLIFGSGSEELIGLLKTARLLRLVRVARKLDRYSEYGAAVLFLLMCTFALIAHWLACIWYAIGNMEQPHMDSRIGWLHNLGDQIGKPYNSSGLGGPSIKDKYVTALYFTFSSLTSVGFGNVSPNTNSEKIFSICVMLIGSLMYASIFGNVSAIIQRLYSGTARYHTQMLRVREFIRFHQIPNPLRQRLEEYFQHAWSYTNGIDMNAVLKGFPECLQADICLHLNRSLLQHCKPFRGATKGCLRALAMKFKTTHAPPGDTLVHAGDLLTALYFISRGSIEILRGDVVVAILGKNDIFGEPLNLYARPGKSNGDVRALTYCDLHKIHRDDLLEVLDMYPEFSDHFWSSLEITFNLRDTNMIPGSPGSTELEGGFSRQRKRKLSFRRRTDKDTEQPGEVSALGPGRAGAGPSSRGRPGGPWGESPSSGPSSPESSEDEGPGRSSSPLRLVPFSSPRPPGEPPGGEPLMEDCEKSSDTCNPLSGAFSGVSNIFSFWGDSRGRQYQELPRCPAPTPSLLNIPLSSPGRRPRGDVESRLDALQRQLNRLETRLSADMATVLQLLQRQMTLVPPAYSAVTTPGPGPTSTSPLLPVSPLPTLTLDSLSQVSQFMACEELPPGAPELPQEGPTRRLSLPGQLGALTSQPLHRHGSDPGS

Compound | hERG current change (%, negative = inhibition) at 10uM [%]
CCOC(=O)C1C(=O)C=C(c2ccc([N+](=O)[O-])cc2)CC1c1ccccc1 (stereo not drawn) | -63.5
CCOC(=O)C1CCCN(CC(=O)Nc2cccc(C(C)=O)c2)C1 (stereo not drawn) | 30.2
COc1cnc(SCCC(F)=C(F)F)[nH]c1=O | 18.4
CCOc1ccc(-n2ccnc2SCC(=O)Nc2nnc(CC)s2)cc1 | -11.9
CN1CCN(CCNC(=O)Nc2ccc(Cl)cc2)CC1 | -0.17
O=C(Nc1ccc(Br)cc1)c1cc(-c2cccs2)on1 | 9.55
Cc1[nH]c(=O)c(C#N)c(C)c1CCC(=O)N(C)CC(=O)Nc1ccc(Cl)c(Cl)c1 | 20.9
O=C(COC(=O)Cn1cnc2ccccc2c1=O)Nc1ccccc1Sc1ccc(Cl)cc1 | 0.2
CC(Oc1ccc(Br)cc1)C(=O)NC1CCN(Cc2ccccc2)CC1 (stereo not drawn) | -80.4
Cc1ccc(S(=O)(=O)NC(=O)C2CCCCC2)cc1 | 14.3
CCCCNC(=O)NCCN1CCOCC1 | 28.7
C=CCNC(=O)CN(c1cccc(Br)c1)S(C)(=O)=O | -4.93
N[C@@H](Cc1ccccc1)c1nnc2sc(SCc3ccccc3)nn12 | -23.6
COc1cc(/C=C(\CC(=O)O)c2nc3ccccc3s2)cc(OC)c1O | -2.3
CC(C)CC(NC(=O)C(NC(=O)C(Cc1ccc(OCc2ccccc2)cc1)NC(=O)OC(C)(C)C)C(C)C)C(N)=O (stereo not drawn) (Boc-Tyr(Bn)-Val-Leu-NH2; configuration not given here) | 8.21
CCOC(=O)c1ccc(NC(=O)NCCN2CCCCC2)cc1 | -31.6
CCCCn1c(=O)[nH]c(=O)c2c1nc(CN(C)Cc1cccc(OC)c1OC)n2CCC.O=C(O)C(=O)O | 18.5
CC1CCCc2sc3nc(NCc4ccco4)n4ncnc4c3c21 (stereo not drawn) | 8.43
O=C(O)CN1C(=O)c2ccc(C(=O)c3ccccc3)cc2C1=O | 16.3
CC1=NN(c2ccc(Br)cc2)C(=O)/C1=C/c1ccc(-c2ccccc2C(=O)O)o1 | 26.4
CN1CCN(c2nc3c(c(=O)n(C)c(=O)n3C)n2CC(N)=O)CC1 | -4.88
CCN(CC)S(=O)(=O)c1ccc(N2CCOCC2)c(NC(=O)CC2OC(=O)c3ccccc32)c1 (stereo not drawn) | -26
Cc1ccc2c(c1)NC(=O)C(CC(=O)O)O2 (stereo not drawn) | 21.1
COc1ccc(Cl)cc1S(=O)(=O)Nc1ccc(Cl)cn1 | 5.84

Reference: publication PMC4336329 (PLoS ONE, 2015)
